According to publication PMC6403371, “Local unfolding of the HSP27 monomer regulates chaperone activity” (Nature Communications, 2019):

Target: the molecule itself
Experiment: 15N NMR relaxation (rotational correlation time); 1 mM oxidised cHSP27 in NMR buffer, 25 °C, 11.7 and 14.1 T; axially symmetric diffusion tensor, ModelFree

B1: cHSP27 (α-crystallin domain of HSP27, […]) (domain or fragment)
chain: not shown
modifications: intermolecular disulphide bond at C137 in the oxidised state
notes: HSP27 (HSPB1), human, […]; the glycine left after TEV cleavage is G84 of HSP27; Studied oxidised (no reducing agent) and reduced (250 μM DTT or 5 mM BME); also called ACD; WT cHSP27; source: E. coli, purified (Ni2+ column, TEV cleavage, reverse Ni2+, SEC); not shown: His6, N-terminal, cleaved
stoichiometry N: 2
